Experimental data reported in publication PMC3297578.
These are yes or no findings as the source states them, for the method shown. In cells and extracts the contact can be indirect. Some binding calls cover weakened binding; strength is not graded here. Sequences can lack the tags named with a protein. Blank lines part the entries; values can stand above or below the binder they belong to.

Chains of the proteins cited; added tags and fusions are not shown.
UniProt Q11107: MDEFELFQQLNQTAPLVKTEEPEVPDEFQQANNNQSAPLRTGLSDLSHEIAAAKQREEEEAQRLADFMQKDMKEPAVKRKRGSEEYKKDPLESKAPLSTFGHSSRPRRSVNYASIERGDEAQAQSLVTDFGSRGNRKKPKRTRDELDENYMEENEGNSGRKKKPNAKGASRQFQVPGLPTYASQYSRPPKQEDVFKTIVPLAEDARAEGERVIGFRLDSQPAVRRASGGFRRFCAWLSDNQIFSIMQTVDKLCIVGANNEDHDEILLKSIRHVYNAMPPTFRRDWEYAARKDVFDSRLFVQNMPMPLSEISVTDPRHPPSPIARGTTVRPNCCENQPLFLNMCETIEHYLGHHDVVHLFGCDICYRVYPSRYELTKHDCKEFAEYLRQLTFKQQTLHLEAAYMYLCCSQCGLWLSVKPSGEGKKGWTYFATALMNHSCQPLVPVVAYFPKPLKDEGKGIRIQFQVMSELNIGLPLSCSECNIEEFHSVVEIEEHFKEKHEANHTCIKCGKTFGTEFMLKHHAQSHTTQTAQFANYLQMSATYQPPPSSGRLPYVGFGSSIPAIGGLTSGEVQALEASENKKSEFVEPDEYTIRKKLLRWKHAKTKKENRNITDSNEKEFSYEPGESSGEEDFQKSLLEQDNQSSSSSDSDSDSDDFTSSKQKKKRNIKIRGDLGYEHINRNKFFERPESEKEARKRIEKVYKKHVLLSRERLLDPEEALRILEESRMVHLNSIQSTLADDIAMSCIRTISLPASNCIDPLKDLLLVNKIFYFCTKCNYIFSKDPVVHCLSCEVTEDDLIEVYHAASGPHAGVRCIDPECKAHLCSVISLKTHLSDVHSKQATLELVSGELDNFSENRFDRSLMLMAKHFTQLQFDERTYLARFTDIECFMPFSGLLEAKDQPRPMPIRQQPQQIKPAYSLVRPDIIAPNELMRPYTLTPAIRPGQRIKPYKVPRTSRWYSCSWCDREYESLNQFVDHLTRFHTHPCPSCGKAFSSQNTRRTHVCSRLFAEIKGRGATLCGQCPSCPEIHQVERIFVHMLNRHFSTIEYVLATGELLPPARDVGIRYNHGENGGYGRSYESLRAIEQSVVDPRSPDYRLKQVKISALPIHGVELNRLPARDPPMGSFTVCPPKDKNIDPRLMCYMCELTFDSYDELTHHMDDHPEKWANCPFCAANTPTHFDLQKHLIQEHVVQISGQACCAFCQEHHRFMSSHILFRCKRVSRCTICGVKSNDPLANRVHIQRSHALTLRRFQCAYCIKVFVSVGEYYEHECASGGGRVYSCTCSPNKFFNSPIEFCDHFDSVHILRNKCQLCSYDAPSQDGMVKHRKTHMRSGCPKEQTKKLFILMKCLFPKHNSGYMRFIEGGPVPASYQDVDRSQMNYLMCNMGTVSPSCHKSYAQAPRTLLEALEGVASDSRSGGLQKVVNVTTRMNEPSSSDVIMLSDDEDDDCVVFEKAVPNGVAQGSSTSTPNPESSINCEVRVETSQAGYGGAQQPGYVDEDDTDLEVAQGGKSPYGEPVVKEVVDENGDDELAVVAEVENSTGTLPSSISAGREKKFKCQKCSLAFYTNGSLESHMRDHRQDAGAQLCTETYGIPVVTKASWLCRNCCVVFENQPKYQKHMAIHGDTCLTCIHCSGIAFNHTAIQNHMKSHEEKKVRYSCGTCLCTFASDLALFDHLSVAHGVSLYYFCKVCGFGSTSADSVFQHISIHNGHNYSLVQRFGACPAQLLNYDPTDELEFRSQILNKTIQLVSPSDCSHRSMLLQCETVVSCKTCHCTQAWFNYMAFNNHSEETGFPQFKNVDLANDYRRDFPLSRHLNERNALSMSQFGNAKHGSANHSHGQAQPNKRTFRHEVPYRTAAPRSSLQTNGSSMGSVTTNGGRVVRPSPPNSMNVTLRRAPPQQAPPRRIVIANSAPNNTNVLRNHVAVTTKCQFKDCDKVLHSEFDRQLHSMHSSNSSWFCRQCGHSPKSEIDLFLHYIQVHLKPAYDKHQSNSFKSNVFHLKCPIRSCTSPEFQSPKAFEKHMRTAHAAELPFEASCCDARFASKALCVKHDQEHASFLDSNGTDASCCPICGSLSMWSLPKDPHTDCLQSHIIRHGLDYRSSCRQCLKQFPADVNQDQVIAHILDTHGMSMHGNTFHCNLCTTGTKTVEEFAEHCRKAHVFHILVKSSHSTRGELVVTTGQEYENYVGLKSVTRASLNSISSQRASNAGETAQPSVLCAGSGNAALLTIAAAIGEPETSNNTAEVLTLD

Experiments:
Test in all cases: co-IP; anti-GFP immunoprecipitation from 50 ul packed embryos coexpressing a GFP fusion and a 3xFLAG fusion; eluted by boiling in sample buffer; Western with anti-GFP and M2 anti-FLAG
LIN-61::GFP (C. elegans) = target: T1, LIN-61::GFP (C. elegans) (UniProt B2D6M2)
T1 sequence: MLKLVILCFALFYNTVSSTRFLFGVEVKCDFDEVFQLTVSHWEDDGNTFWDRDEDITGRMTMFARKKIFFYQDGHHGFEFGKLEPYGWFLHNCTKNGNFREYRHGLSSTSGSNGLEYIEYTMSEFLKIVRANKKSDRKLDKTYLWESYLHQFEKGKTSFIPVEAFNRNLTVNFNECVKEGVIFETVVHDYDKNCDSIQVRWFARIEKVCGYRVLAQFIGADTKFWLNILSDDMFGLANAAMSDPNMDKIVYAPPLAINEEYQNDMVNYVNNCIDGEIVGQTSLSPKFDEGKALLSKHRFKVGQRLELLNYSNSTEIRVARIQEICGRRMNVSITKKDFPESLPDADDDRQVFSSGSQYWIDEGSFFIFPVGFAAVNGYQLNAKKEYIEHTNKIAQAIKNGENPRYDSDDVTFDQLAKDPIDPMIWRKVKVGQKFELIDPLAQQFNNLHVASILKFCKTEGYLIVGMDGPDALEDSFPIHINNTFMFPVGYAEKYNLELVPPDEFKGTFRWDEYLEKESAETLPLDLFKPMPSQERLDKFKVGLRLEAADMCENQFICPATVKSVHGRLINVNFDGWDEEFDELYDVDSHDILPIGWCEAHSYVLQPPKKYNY

HPL-2::GFP (C. elegans) = target: T2, HPL-2::GFP (C. elegans) (UniProt G5EDE2)
T2 sequence: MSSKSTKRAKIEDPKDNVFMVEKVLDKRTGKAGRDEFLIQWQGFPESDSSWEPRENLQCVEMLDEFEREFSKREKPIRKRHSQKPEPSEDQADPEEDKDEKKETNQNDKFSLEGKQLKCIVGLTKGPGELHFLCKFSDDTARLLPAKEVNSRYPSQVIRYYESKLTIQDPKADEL

LIN-13::GFP (C. elegans) = LIN-13::GFP (C. elegans) (UniProt Q11107)

binding (LIN-61::GFP (C. elegans)): no binding
binding (HPL-2::GFP (C. elegans)): binds weakly
binding (LIN-13::GFP (C. elegans)): no binding
B1: LIN-54::3xFLAG (protein, UniProt Q95QD7 1-435)
chain: MNQGEIVYQDDDDYYDESEIYDNYEEGAEFIEVNGQLVPHNPNLQAQQNRPGTSSMIQQHNRSMEVNQGLVKDEPIDTSSHRVYVPPPRPVQRKLFQPGPSTPGSSQYTVRNLSNLSGSPSMYDRQPASLPRTVQPMGLEMGNSEQRKVYIDMKDHVSHIRLKTKKKVFAPGQRKPCNCTKSQCLKLYCDCFANGEFCRDCNCKDCHNNIEYDSQRSKAIRQSLERNPNAFKPKIGIARGGITDIERLHQKGCHCKKSGCLKNYCECYEAKVPCTDRCKCKGCQNTETYRMTRYKNSGGAVSNTNALMSLTNASSTATPDSGPGSVVTDEHGDDYEDMLLSHKPKVEMDPRRFPWYYMTDEVVEAATMCMVAQAEEALNYEKVQTEDEKLINMEKLVLREFGRCLEQMITNTTELTQDLDAAPTDDIPGPSTSTS

binding (LIN-61::GFP (C. elegans)): binds
binding (HPL-2::GFP (C. elegans)): binds
binding (LIN-13::GFP (C. elegans)): binds
B2: LIN-61::3xFLAG (protein, UniProt B2D6M2 1-612)
chain: T1 sequence
